In PubChem BioAssay AID686978 (National Center for Advancing Translational Sciences (NCATS), 2013):
Where “and” joins values, the source holds several entries; their conditions need not be identical. Equal values may be shown once. Screen size: about 420,000 compounds; about 64,000 (15%) were called active. The inconclusive results got no clear call from the source; some entries with a clear call stand among them for comparison. Calls follow the shape of the dose curve; as a rule, active = well fitted inhibition curve with a large enough effect; inconclusive = small, poorly fitted or top-dose-only effect; inactive = flat fitted curve, though single readings scatter. Where the call is inconclusive, the potency comes from a doubtful curve fit.
% is scaled to controls: 0 for no effect and ±100 for the full control effect; potency is read from the fitted curve at half-maximal effect; tags tell the direction and shape of the fitted curve.

Test: qHTS for Inhibitors of human tyrosyl-DNA phosphodiesterase 1 (TDP1): qHTS in cells in absence of CPT; also: nearly all actives have a fitted effect of over 55% in size
Conditions: DT40 Tdp1-/- hTDP1 cells, no CPT, ATP luminescence, 48 h; activity change, negative = growth inhibition: at 46.2 µM (top of the series) unless noted
Procedure, shortened: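 Camptothecin absent (DMSO only). Human TDP1-complemented DT40 knockout cells, 400 cells/well, 37 °C for minimum 48 hr; ATP measured via CellTiter-Glo, 30 min dark incubation, luminescence.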
For `C=CCN1CN(CCc2ccccc2)CNC1=S`, the “activity change, negative = growth inhibition” value was inactive: -6.61%. With `CC1=C(CC(=O)c2ccc(Cl)cc2)C(=O)c2ccccc2C1=O` the Potency was active: 16.4 µM. For `COc1ccc(CNC(=O)CSc2nnnn2-c2ccc(O)cc2)cc1`, the Potency was inconclusive: 29.1 µM [inhibitor, single point]. In the case of `NC(=S)NN=C1C=CCCC1`, the Potency is reported as active: 4.61 µM. With `CCOC(=O)c1cc(-c2cccnc2)nn1-c1ccccc1` the Potency was inconclusive: 5.8 µM [inhibitor, single point]. In the case of `Cn1c(=O)c2c(nc(CN3CCN(C(=O)c4ccco4)CC3)n2Cc2ccccc2)n(C)c1=O`, the Potency is reported as inconclusive: 3.66 µM [inhibitor, full curve, poor fit]. For `COc1cccc(NC(=O)CSc2nc3ccccc3cc2Cc2ccccc2)c1`, the Potency was inconclusive: 20.6 µM [inhibitor, single point]. With `COc1ccc(CCNC(=O)c2cc3ccccc3oc2=O)cc1` the “activity change, negative = growth inhibition” value was inactive: 3.39%. In the case of `Cn1c(=O)[nH]c(=O)c2c1nc(SCCN1CCCCC1)n2CCCc1ccccc1`, the Potency is reported as inconclusive: 16.4 µM [inhibitor, single point]. In the case of `Cc1ccc(CN2C(=O)C(Cc3ccccc3)Nc3ncnc(N4CCOCC4)c32)cc1` (centres undefined), the Potency is reported as inconclusive: 29.1 µM [inhibitor, single point]. In the case of `Cn1c(N)c(C(=O)COC(=O)c2ccc(Cl)c(S(=O)(=O)N3CCCCC3)c2)c(=O)n(C)c1=O`, the Potency is reported as inconclusive: 14.6 µM [inhibitor, single point]. In the case of `CC1CC(C)CN(C(C)C(=O)Nc2cc(S(=O)(=O)N3CCCCC3)ccc2Cl)C1` (centres undefined), the Potency is reported as active: 14.6 µM. With `CCOc1ccc(S(=O)(=O)N2CCN(S(=O)(=O)c3ccc(OCC)cc3)C(C)C2)cc1` (centres undefined) the Potency was inconclusive: 23.1 µM [inhibitor, single point]. For `Cn1c(SCC(=O)N2c3ccccc3CCc3ccccc32)nnc1-c1cc2ccccc2cc1O`, the Potency was active: 14.6 µM. With `Cc1ccc(C)c(N2CCN(C(=O)C3CCN(c4nc(-c5ccc(C(C)C)cc5)no4)CC3)CC2)c1` the Potency was active: 10.3 µM. With `O=S1(=O)CCOC[C@H](CC2CCCCC2)N1Cc1cccc(F)c1` the Potency was “inactive and inconclusive: 23.1 µM [inhibitor, single point]”. In the case of `Cc1c(C(=S)NC(=O)C2CC2)c(=O)n(-c2ccccc2)n1C`, the Potency is reported as inconclusive: 29.1 µM [inhibitor, single point]. For `COCCn1c(-c2ccc(Br)cc2)nc2oc3cc(OC)ccc3c(=O)c2c1=O`, the Potency was inconclusive: 29.1 µM [inhibitor, single point]. In the case of `COC(=O)c1ccccc1S(=O)(=O)N1CCC(C(=O)OC(C)C(=O)N(C)Cc2ccccc2)CC1` (centres undefined), the Potency is reported as inconclusive: 29.1 µM [inhibitor, single point].
